The whole screen tested about 270,000 compounds, of which about 620 (0.23%) were called active. Inconclusive means that the source gave no clear call. Such entries were picked first, then a sample of the others. Calls come from the whole dose curve; as a rule, active = well fitted inhibition curve with a large enough effect in the polarisation, with a control signal flat (not every such curve was filed as active); inconclusive = small, poorly fitted or top-dose-only effect, or effect the other way, or a change in a side signal; inactive = no such curve, though single readings can be large or run the other way; the % refers to the polarisation. A potency beside an inconclusive call is a rough fit, not a confirmed value. “Side channel” marks fits to a control or component signal instead of the main read-out.
target: Menin (Homo sapiens) (UniProt O00255); assay: qHTS Assay for Inhibitors Targeting the Menin-MLL Interaction in MLL Related Leukemias: Competition With Texas Red Labeled MLL-derived Mutant Peptide; settings: fluorescence polarization; FP activity change, negative = inhibition: at 61.6 µM (top of the series); for FP activity change, negative = inhibition: % of control where 0% means no effect
Source text: qHTS Assay for Inhibitors Targeting the Menin-MLL Interaction in MLL Related Leukemias NIH Chemical Genomics Center [NCGC] NIH Molecular Libraries Probe Centers Network [MLPCN] MLPCN Grant: MH084875-01A1 Assay Submitter (PI): Jolanta Grembecka, Tomasz Cierpicki, University of Virginia Translocations of the MLL (Mixed Lineage Leukemia) gene are frequently found in human leukemias affecting both children and adults. Fusion of MLL to one of more than 60 genes results in generation of oncogenic proteins upregulating Hox genes, which are vital to blood cell development. Patients harboring fusion of the MLL gene suffer from aggressive leukemias and respond poorly to available therapies. All of the oncogenic fusion proteins have a preserved N-terminal fragment of MLL that has been identified to interact with menin. It has been recently discovered that association with menin is critical to the leukemogenic activity of the MLL fusion oncoproteins. Selective targeting of the menin-MLL interaction could provide an attractive therapeutic approach to develop novel drugs for MLL-related leukemias. Small molecules blocking the menin-MLL interaction should reverse the oncogenic potential of MLL fusion proteins. We have developed and optimized a fluorescence polarization-based assay for the identification of Menin-MLL inhibitors. The assay was run employing two different MLL-derived peptides. The present assay uses a 12 amino acid peptide labeled with fluorescein at its N-terminus. This peptide consists of the menin high affinity binding motif from MLL and is potently bound by menin. Another peptide with a mutated sequence, labeled with Texas Red, was used in parallel as a less stringent screen for inhibitors.
The Menin protein, the MLL-wild type (w.t.) derived peptide (N-terminal 12 amino acids), the MLL-derived peptide labeled with Texas Red and the MLL-w.t. peptide labeled with Fluorescein were kindly supplied by laboratory of Dr. Jolanta Grembecka, University of Virginia. All protein and peptide solutions were stored in single use aliquots at -80C. The Eu3+ Cyrptate-conjugated mouse monoclonal antibody anti-6 Histidine (Eu3+-AB) and the Streptavidin-XL665 conjugate (XL665) were purchased from Cisbio International (Bedford, MA). All antibody and XL665 conjugate solution stocks were stored in single use aliquots at -20C. The Buffer components for all assays were purchased from Sigma-Aldrich (St. Louis, MO) and Invitrogen (Carlsbad, CA). FP Assay Reagents: 1. FP reaction buffer: 50 mM Tris-HCl pH 7.5, 50 mM NaCl, 1mM DTT. Before use, 0.05% BSA is added. 2. Menin protein, MLL-w.t. labeled with fluorescein, MLL-mutant peptide labeled with texas red. Stored in singe use aliquots at -80C. 3. MLL-w.t. unlabeled peptide as positive control: 10 uM final in FP buffer. FP Assay Procedure: 1. Prepare Menin at 200 nM, MLL-w.t.-fluorescein at 25 nM, and MLL-mutant-texas red at 50 nM mixture in FP buffer. 2. Prepare Menin at 200 nM, MLL-w.t.-fluorescein at 25 nM, MLL-mutant-texas red at 50 nM, and 10 uM MLL-w.t. unlabeled mixture in FP buffer. 3. Prepare MLL-w.t.-fluorescein at 25 nM and MLL-mutant-texas red at 50 nM mixture in FP buffer. 3. Dispense 4 ul per well of reagent in step 1 in columns 2, 4 - 48 in a black 1536 well plate, dispense 4 ul per well of reagents from steps 2 and 3 in columns 1 and 3 respectively. Incubate plate at ambient for 15 minutes. 4. Transfer 23 nl per well of compound to plate and incubate at ambient for 1 hr. 5. Read fluorescence polarization for each label using the PerkinElmer Envision. Envision protocol for fluorescein: FITC FP Dual Enh Mirror, Excitation filter 480, Emission filter (1) P-pol 535, Emission filter (2) S-pol 535 Envision protocol for texas red: FP Dual Enh Mirror, Excitation filter 555, Emission filter (1) P-pol 632, Emission filter (2) S-pol 632
Potency is the fitted concentration of half-maximal effect; tags give direction and shape of the fitted curve or compound fluorescence and quenching.

Sequence of UniProt O00255 (O00255 whole entry, looked up, the tested form may be a part): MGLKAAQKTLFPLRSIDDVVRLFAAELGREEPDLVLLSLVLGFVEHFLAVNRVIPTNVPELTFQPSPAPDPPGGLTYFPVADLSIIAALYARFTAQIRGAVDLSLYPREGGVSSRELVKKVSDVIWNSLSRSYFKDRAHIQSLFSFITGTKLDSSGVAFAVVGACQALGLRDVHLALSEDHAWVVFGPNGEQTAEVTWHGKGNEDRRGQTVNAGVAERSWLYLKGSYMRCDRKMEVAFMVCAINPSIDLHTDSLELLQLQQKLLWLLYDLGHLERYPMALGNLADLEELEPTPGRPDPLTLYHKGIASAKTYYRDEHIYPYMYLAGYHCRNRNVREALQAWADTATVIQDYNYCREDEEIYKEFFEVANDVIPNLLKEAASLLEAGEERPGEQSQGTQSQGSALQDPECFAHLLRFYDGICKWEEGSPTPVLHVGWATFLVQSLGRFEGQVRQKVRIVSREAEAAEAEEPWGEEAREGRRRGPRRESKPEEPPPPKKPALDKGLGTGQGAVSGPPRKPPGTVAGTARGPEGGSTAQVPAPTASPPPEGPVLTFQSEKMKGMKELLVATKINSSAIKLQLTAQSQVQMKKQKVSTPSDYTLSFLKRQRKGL

SMILES | Potency | FP activity change, negative = inhibition
C[C@H](NC(=O)Cc1cc(F)cc(F)c1)C(=O)N[C@@H](C(=O)OC(C)(C)C)c1ccccc1 | inconclusive: 39.8 µM [fluorescent, side channel, single point] | 
COc1ccccc1NS(=O)(=O)c1cc(-c2cc(C)no2)ccc1OC | inconclusive: 31.6 µM [quencher, side channel, partial curve] | 
COc1cc(-c2nc(-c3ccc4c(c3)-c3ccccc3S4(=O)=O)c(-c3ccccc3)[nH]2)cc(OC)c1O | inconclusive: 7.94 µM [quencher, side channel, partial curve] | 
CC1Cc2ccccc2N1C(=O)COC(=O)Cn1nnc(-c2ccccc2)n1 (stereo not given) | inconclusive: 7.08 µM [inhibitor, single point] | 
COc1cccc(NC(=O)Nc2nnc(Cc3ccccc3F)s2)c1 | inconclusive: 31.6 µM [inhibitor, single point] | 
CC(C)C(=O)N1CCN(c2ccccc2NC(=O)c2ccco2)CC1 | inconclusive: 20 µM [inhibitor, partial curve] | 
S=C(Nc1ccc(Cl)c(Cl)c1)NC1CCCCC1 | inconclusive: 15.8 µM [quencher, side channel, partial curve] | 
O=C(OCCN1CCCC1)C1(c2ccccc2)CCCC1 | inconclusive: 6.31 µM [inhibitor, partial curve] | 
CCOc1ccccc1N(C(=O)c1snc(C(N)=O)c1N)C(C(=O)NC1CCCC1)c1cccs1 (stereo not given) | inconclusive: 12.6 µM [inhibitor, partial curve] | 
Cc1ccc(CC(=O)Nc2nc3ccccc3s2)cc1 | inconclusive: 14.1 µM [quencher, side channel, partial curve] | 
C/C(=N/NC(=S)Nc1cccc(C)c1)c1cccc([N+](=O)[O-])c1 | inconclusive: 12.6 µM [quencher, side channel, partial curve] | 
COc1ccc(SCC(CC(C)C)N2CCN(C)CCC2=O)cc1 (stereo not given) |  | inactive: 0.0947%
Cc1ccc(NC(=O)CCN2C(=O)c3cccc4cccc(c34)C2=O)cc1 | inconclusive: 11.2 µM [fluorescent, side channel, partial curve] | 
Cc1c(-c2nnc(-c3ccc(C(F)(F)F)cc3)o2)cnn1-c1ccccc1 | inconclusive: 28.2 µM [inhibitor, single point] | 
Cc1nn(Cc2ccc(C(=O)Nc3ccccc3F)cc2)c(C)c1Cl | inconclusive: 3.55 µM [inhibitor, partial curve] | 
COc1cccc(OC)c1C(=O)NC(=S)Nc1cc(-c2nc3ccccc3[nH]2)ccc1Cl | inconclusive: 31.6 µM [inhibitor, single point] | 
COc1cccc(/C=N/NC(=O)CCC(=O)Nc2ccc(Br)cc2)c1 | inconclusive: 39.8 µM [fluorescent, side channel, single point] | 
O=C(O)CN1C(=O)/C(=C\c2cccc(OCc3ccccc3F)c2)SC1=S | inconclusive: 39.8 µM [quencher, side channel, single point] | 

SMILES | Potency | FP activity change, negative = inhibition
CC(=O)c1c(O)c(C)c(O)c2c1OC1=CC(=O)C(C(C)=O)C(=O)C12C (stereo not given) | inconclusive: 25.1 µM [quencher, side channel, single point] | 
CCCCC(c1nnnn1C1CCCC1)N1CCN(C2CCCCC2)CC1 (stereo not given) | inconclusive: 10 µM [inhibitor, partial curve] | 
CCCCC(=O)Nc1ncc(S(=O)(=O)c2ccc([N+](=O)[O-])cc2)s1 | inconclusive: 12.6 µM [quencher, side channel, partial curve] | 
CC(C)=CCCC(C)CN1CCC(N2CCC(C(=O)N3CCCC3)CC2)CC1 (stereo not given) | inconclusive: 25.1 µM [inhibitor, single point] | 
COC(=O)/C(=C(O)\C=C\c1ccccc1[N+](=O)[O-])c1nc2ccccc2[nH]1 | inconclusive: 11.2 µM [quencher, side channel, partial curve] | 
Cc1ccc(C(=O)Nc2ncc([N+](=O)[O-])s2)cc1 | inconclusive: 25.1 µM [quencher, side channel, partial curve] | 
COc1ccc(C)cc1NC(=O)c1ccc2c(O)c(S(=O)(=O)c3ccccc3)c(=O)[nH]c2c1 | inconclusive: 12.6 µM [quencher, side channel, partial curve] | 
CC(C)Cc1nnc(NC(=O)CCC(=O)N2CCN(c3ccccc3F)CC2)s1 | inconclusive: 14.1 µM [inhibitor, partial curve] | 
CCCN1C(=O)C(Cc2nc3ccccc3c(=O)n2-c2ccccc2)c2ccccc21 (stereo not given) | inconclusive: 3.55 µM [fluorescent, side channel, partial curve] | 
COc1cc(/C=C(\C#N)c2nc3ccc(C)cc3[nH]2)c([N+](=O)[O-])cc1OC |  | inactive: 19.1%
O=C(Nc1ccc(NC(=O)c2ccc(Cl)cc2Cl)cc1)c1cccs1 | inconclusive: 39.8 µM [fluorescent, side channel, single point] | 
CCSc1nc2sc3c(c2c(=O)n1CC)CC(C)(C)OC3 | inconclusive: 15.8 µM [fluorescent, side channel, single point] | 
COC(=O)c1nn(-c2ccc(Cl)cc2)c(=O)cc1Sc1ccccn1 | inconclusive: 39.8 µM [inhibitor, single point] | 
CC(=O)C(Sc1ccc2nnc(-c3ccc(C)cc3)n2n1)C(C)=O | inconclusive: 25.1 µM [inhibitor, partial curve] | 
COc1cccc(OCCCn2cc(/C=C3/C(=N)N4C=C(C)SC4=NC3=O)c3ccccc32)c1 | inconclusive: 22.4 µM [inhibitor, partial curve] | 
COc1ccccc1Nc1nc(-c2sc(NC(=O)c3ccco3)nc2C)cs1 | inconclusive: 15.8 µM [quencher, side channel, partial curve] | 
C=CC[C@@H]1C=C[C@H](O/N=C/c2ccc(C(=O)N3[C@H](c4ccc(C)cc4)[C@@H](C)CC[C@H]3C(=O)OC)cc2)[C@@H](CO)O1 | inconclusive: 0.708 µM [fluorescent, side channel, full curve, poor fit] | 
